Results published in a compilation of properties of binary mixtures (doi:10.1016/j.molliq.2020.112718).
The densities may have been worked out from excess volumes.

Experiment: xn = mol fraction of the nth substance listed
Settings: 100 kPa

COCC[n+]1ccn(C)c1.C[C@@H](O)[C@H](N)C(=O)[O-] + O
mass density [kg/m3]
Settings	288.15 K	293.15 K	298.15 K	303.15 K	308.15 K	313.15 K	318.15 K	323.15 K	328.15 K
x1 = 0.3313	1196.3	1192.7	1189.2	1185.6	–	1178.5	1175	1171.4	1167.7
x1 = 0.3795	–	1192.9	1189.3	1185.7	1182.2	1178.7	1175.2	1171.6	1167.9
x1 = 0.4475	1196.6	1193	1189.5	1185.9	1182.3	1178.8	1175.3	–	1168.1
x1 = 0.5347	–	1193.2	1189.6	–	1182.5	1179	–	–	1168.3
x1 = 0.657	–	1193.4	1189.8	–	1182.7	1179.2	1175.7	–	1168.5
x1 = 1	–	1193.6	1190.1	1186.6	1183	1179.4	1176	1172.4	1168.8

CCOCC[n+]1ccn(C)c1.C[C@@H](O)[C@H](N)C(=O)[O-] + O
mass density [kg/m3]
Settings	288.15 K	293.15 K	298.15 K	303.15 K	308.15 K	313.15 K	318.15 K	323.15 K	328.15 K
x1 = 0.3157	1160.8	1157.2	1153.6	1150	1146.4	1142.8	1139.1	–	1131.8
x1 = 0.3647	1160.9	1157.3	1153.7	1150.1	1146.5	–	1139.3	–	–
x1 = 0.4246	1161.1	1157.4	1153.9	1150.3	1146.7	1143	1139.4	1135.8	1132
x1 = 0.508	–	–	1154	1150.4	1146.8	1143.2	1139.5	1135.9	–
x1 = 0.6189	1161.3	1157.7	–	1150.6	1146.9	1143.3	1139.7	1136	1132.3
x1 = 1	1161.6	1158	1154.4	1150.8	1147.2	1143.5	1139.9	1136.3	–
